These results are taken from patent US3997506A (priority 1974, dated 1976).

SMILES strings stand for the structures. Where two headings read alike, the source gives them in different places.

Test [1] relates to human leucocytes (DNA synthesis). In kind it is cell-based. The conditions noted are these: for anti-mitotic activity (in words): 0.5 and 1 μg/ml; for incorporation of radio-activity (tritiated thymidine): Volunteer Nr. 4, control 4,799.
For test [2] the test system is unchanged.
The mark [3] stands for this setting: Volunteer Nr. 1, 5 μg/ml, control 47,403.
[4] abbreviates: Volunteer Nr. 1, 10 μg/ml, control 47,403.
Where [5] appears, read: Volunteer Nr. 1, 20 μg/ml, control 47,403.
The mark [6] stands for this setting: Volunteer Nr. 1, 30 μg/ml, control 47,403.
The mark [7] stands for this setting: Volunteer Nr. 1, 50 μg/ml, control 47,403.
Setting [8] is: Volunteer Nr. 2, 2.5 μg/ml, control 19,649.
[9] abbreviates: Volunteer Nr. 2, 5 μg/ml, control 19,649.
Where [10] appears, read: Volunteer Nr. 2, 10 μg/ml, control 19,649.
The mark [11] stands for this setting: Volunteer Nr. 2, 20 μg/ml, control 19,649.
[12] abbreviates: Volunteer Nr. 2, 30 μg/ml, control 19,649.
[13] abbreviates: Volunteer Nr. 2, 50 μg/ml, control 19,649.
The mark [14] stands for this setting: Volunteer Nr. 3, 2.5 μg/ml, control 20,593.
The mark [15] stands for this setting: Volunteer Nr. 3, 5 μg/ml, control 20,593.
Setting [16] is: Volunteer Nr. 3, 10 μg/ml, control 20,593.
Setting [17] is: Volunteer Nr. 3, 20 μg/ml, control 20,593.
Where [18] appears, read: Volunteer Nr. 3, 30 μg/ml, control 20,593.
The mark [19] stands for this setting: Volunteer Nr. 3, 50 μg/ml, control 20,593.

In the case of `COc1cc2c(c(OC)c1OC)-c1ccc(SC)c(=O)cc1C(NC(=O)C13CC4CC(CC(C4)C1)C3)CC2` (single isomer, unassigned) [Derivative, N-desacetyl-N-adamantoyl-thiocolchicine], in test [1], the “anti-mitotic activity (in words)” value was “markedly stronger with the derivative than with colchicine”. Further, the “incorporation of radio-activity (tritiated thymidine)” value (from here on “incorporation of radio-activity”) in test [1] (0.5 μg/ml) was 3,322 cpm; in test [1] (1 μg/ml), 1,713 cpm; in test [2] (setting [3]) it was 5,703 cpm; in test [2] (setting [4]) it was 3,190 cpm; in test [2] (setting [5]), 443 cpm; in test [2] (setting [6]), 195 cpm. In addition, the “incorporation of radio-activity” value in test [2] (setting [7]) is given as 138 cpm; in test [2] (setting [8]) it was 5,359 cpm; in test [2] (setting [9]), 4,035 cpm; in test [2] (setting [10]), 1,766 cpm; in test [2] (setting [11]) it was 926 cpm; in test [2] (setting [12]), 435 cpm. The “incorporation of radio-activity” value in test [2] (setting [13]) is recorded as 193 cpm; in test [2] (setting [14]), 6,259 cpm; in test [2] (setting [15]), 2,101 cpm; in test [2] (setting [16]), 968 cpm; in test [2] (setting [17]), 304 cpm; in test [2] (setting [18]), 200 cpm. The “incorporation of radio-activity” value in test [2] (setting [19]) is recorded as 84 cpm. Besides, the “anti-mitotic activity compared with colchicine (in words)” value in test [2] (general statement) is recorded as “equal to if not stronger than that of colchicine”.
As for `COc1cc2c(c(OC)c1OC)-c1ccc(OC)c(=O)cc1[C@@H](NC(C)=O)CC2` [Colchicine, colchicine, reference compound], the “anti-mitotic activity (in words)” value in test [1] was “definite anti-mitotic activity”; in test [2] (2.5 μg/ml), “very substantial”. The “incorporation of radio-activity” value is reported as 3,450 cpm in test [1] (0.5 μg/ml); 2,384 cpm in test [1] (1 μg/ml); 14,190 cpm in test [2] (setting [3]); 10,884 cpm in test [2] (setting [4]); 7,945 cpm in test [2] (setting [5]); 4,874 cpm in test [2] (setting [6]). Besides, the “incorporation of radio-activity” value in test [2] (setting [7]) is 4,910 cpm; in test [2] (setting [8]) it was 8,103 cpm; in test [2] (setting [9]) it was 8,756 cpm; in test [2] (setting [10]), 6,046 cpm; in test [2] (setting [11]) it was 8,477 cpm; in test [2] (setting [12]) it was 8,136 cpm. The “incorporation of radio-activity” value in test [2] (setting [13]) is 5,384 cpm; in test [2] (setting [14]), 5,242 cpm; in test [2] (setting [15]) it was 5,117 cpm; in test [2] (setting [16]), 6,450 cpm; in test [2] (setting [17]), 3,858 cpm; in test [2] (setting [18]) it was 3,044 cpm. For the same compound, in test [2] (setting [19]), the “incorporation of radio-activity” value was 2,107 cpm.
